Experimental data reported in the supplement of paper PMC10441789.
Some of the results follow. Antibody binding of pooled human sera (four to six donors per pool; dilution not stated) to peptides of the Trypanosoma cruzi antigen TSSA on microarrays. Quantile-normalised fluorescence in arbitrary units, mean of duplicate arrays; higher = more binding. No active / inactive call. The uninfected pools are read here as the healthy donors of the same country. The strongest signals lie near the top of the scale (about 60,000).

What was measured:
Experiment in all cases: antibody binding signal (normalised fluorescence) (arbitrary fluorescence units); higher = stronger serum antibody binding to peptide
[1] = test system: pooled sera of chronic Chagas disease patients, Argentina
Description: (§1)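 Microarray of 15-residue peptides over residues 30-55 of Trypanosoma cruzi TSSAII, each with 1 to 10 substitutions at naturally variable positions, probed with one serum pool per country.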

[2] = test system: pooled sera of chronic Chagas disease patients, Bolivia
Description: as §1

[3] = test system: pooled sera of chronic Chagas disease patients, Brazil
Description: as §1

[4] = test system: pooled sera of chronic Chagas disease patients, Colombia
Description: as §1

[5] = test system: pooled sera of chronic Chagas disease patients, Mexico
Description: as §1

[6] = test system: pooled sera of chronic Chagas disease patients, USA
Description: as §1

[7] = test system: pooled sera of uninfected people, Argentina
Description: as §1

[8] = test system: pooled sera of uninfected people, Bolivia
Description: as §1

[9] = test system: pooled sera of uninfected people, Brazil
Description: as §1

[10] = test system: pooled sera of uninfected people, Colombia
Description: as §1

[11] = test system: pooled sera of uninfected people, Mexico
Description: as §1

[12] = test system: pooled sera of uninfected people, USA
Description: as §1

Sequence | antibody binding signal [1] | antibody binding signal [2] | antibody binding signal [3] | antibody binding signal [4] | antibody binding signal [5] | antibody binding signal [6] | antibody binding signal [7] | antibody binding signal [8] | antibody binding signal [9] | antibody binding signal [10] | antibody binding signal [11] | antibody binding signal [12]
SGTENKPATGGTPSQ | 45700 | 18600 | 34400 | 638 | 1250 | 7380 | 748 | 1840 | 385 | 267 | 421 | 163
DKKAATGEAPSPSGA | 19800 | 22700 | 26000 | 184 | 456 | 24900 | 689 | 115 | 185 | 720 | 140 | 210
GTEKKTATGEAPSQS | 14100 | 20900 | 15700 | 819 | 1140 | 20800 | 211 | 571 | 164 | 102 | 115 | 111
SGTENKTATGEAPSQ | 23300 | 35200 | 31200 | 190 | 180 | 21600 | 506 | 281 | 187 | 208 | 213 | 122
ISTPPSGKENKTAAG | 31700 | 3680 | 8960 | 456 | 7350 | 3160 | 2390 | 1100 | 146 | 604 | 205 | 427
SGTENKAAAGGTPSQ | 39600 | 6400 | 13700 | 2950 | 923 | 3740 | 313 | 441 | 775 | 369 | 193 | 131
NKAATGGAPSPSGAS | 698 | 355 | 6360 | 573 | 669 | 1380 | 758 | 732 | 288 | 281 | 186 | 1100
GKDKKTATGEAPSQS | 6310 | 2990 | 7120 | 2410 | 2300 | 14800 | 155 | 76 | 100 | 89.7 | 81.1 | 81.1
PSGKDNKTATGGAPS | 2460 | 854 | 2180 | 5480 | 4160 | 3410 | 297 | 153 | 132 | 160 | 106 | 144
KTAAGGAPSQPGASS | 152 | 199 | 1370 | 6300 | 807 | 185 | 230 | 134 | 129 | 99.4 | 95.6 | 137
SGTEKKTATGGTPSP | 1930 | 923 | 1940 | 6490 | 1340 | 2230 | 298 | 417 | 392 | 1180 | 176 | 151
KDKKPATGGTPSQSG | 369 | 202 | 174 | 413 | 205 | 407 | 221 | 92.1 | 278 | 92.5 | 93.8 | 97.8
GTDNKPATGGAPSPP | 3850 | 17300 | 41200 | 1890 | 490 | 2990 | 343 | 1330 | 583 | 189 | 342 | 182
KEKKPATGEAPSQPG | 40600 | 11600 | 43100 | 173 | 221 | 30500 | 724 | 242 | 158 | 166 | 99.7 | 369
ENKAATGETPSQSGA | 4280 | 4690 | 27800 | 211 | 169 | 13600 | 137 | 218 | 191 | 116 | 189 | 146
NKPATGETPSQSGAS | 16600 | 32900 | 37900 | 229 | 204 | 36500 | 496 | 943 | 482 | 306 | 1740 | 968
SGKENKAAAGETPSP | 4650 | 3240 | 20800 | 8510 | 5830 | 18500 | 8820 | 3460 | 145 | 496 | 573 | 621
KKPAAGGTPSQSGAS | 179 | 243 | 374 | 1540 | 170 | 459 | 292 | 113 | 667 | 106 | 109 | 267
TPPSGKEKKAATGGT | 5590 | 257 | 546 | 691 | 16700 | 1230 | 258 | 272 | 478 | 291 | 85.5 | 157
TDKKPATGEAPSPSG | 44500 | 50200 | 45800 | 383 | 190 | 42400 | 868 | 646 | 387 | 238 | 245 | 150
GKDKKAATGGTPSPS | 437 | 259 | 191 | 482 | 779 | 720 | 142 | 84.2 | 144 | 303 | 73.3 | 98.5
TPPSGTDKKAATGET | 8480 | 13600 | 25300 | 4320 | 15300 | 1410 | 232 | 150 | 375 | 457 | 1650 | 148
ISTPPSGKENKPATG | 19800 | 5330 | 23300 | 588 | 8300 | 13700 | 4380 | 2720 | 189 | 577 | 276 | 684
TEKKAAAGGAPSQPG | 662 | 236 | 1120 | 5640 | 663 | 1420 | 175 | 121 | 450 | 150 | 272 | 229
SGKDNKAATGGTPSQ | 746 | 333 | 696 | 1310 | 1090 | 883 | 203 | 236 | 225 | 328 | 102 | 90.1

Sequence | antibody binding signal [1] | antibody binding signal [2] | antibody binding signal [3] | antibody binding signal [4] | antibody binding signal [5] | antibody binding signal [6] | antibody binding signal [7] | antibody binding signal [8] | antibody binding signal [9] | antibody binding signal [10] | antibody binding signal [11] | antibody binding signal [12]
KENKAATGGAPSPSG | 322 | 224 | 1040 | 216 | 256 | 1610 | 239 | 103 | 173 | 96.2 | 83.1 | 221
PSGKEKKTAAGETPS | 4620 | 1330 | 6160 | 6690 | 7630 | 6260 | 347 | 416 | 103 | 512 | 164 | 163
KENKPATGETPSPSG | 41300 | 31300 | 34900 | 339 | 703 | 26800 | 325 | 570 | 253 | 181 | 1850 | 2540
GTEKKPAAGGAPSPP | 799 | 271 | 436 | 5360 | 892 | 1550 | 167 | 1120 | 1200 | 101 | 726 | 1620
GTDKKTATGGAPSQS | 832 | 275 | 501 | 2590 | 1010 | 669 | 294 | 278 | 106 | 94.7 | 141 | 152
KKAATGGTPSPPGAS | 302 | 547 | 232 | 851 | 216 | 559 | 308 | 205 | 692 | 468 | 87.4 | 429
GTEKKAAAGETPSQP | 1060 | 1700 | 29200 | 684 | 968 | 3080 | 137 | 861 | 217 | 613 | 149 | 178
PSGKDKKPAAGETPS | 3930 | 953 | 4250 | 6300 | 5510 | 5540 | 161 | 473 | 93.6 | 235 | 75.7 | 77.8
TISTPPSGTDNKTAT | 33000 | 42900 | 48400 | 1100 | 11400 | 15600 | 854 | 656 | 1700 | 196 | 252 | 291
GTDNKAAAGGTPSPP | 258 | 173 | 27100 | 2550 | 234 | 1050 | 136 | 669 | 2750 | 509 | 172 | 91.9
SGTDKKPAAGGAPSQ | 645 | 564 | 22600 | 14200 | 2120 | 1070 | 207 | 203 | 315 | 287 | 1850 | 302
KDNKPAAGGTPSQPG | 214 | 170 | 1680 | 839 | 194 | 237 | 330 | 258 | 446 | 268 | 276 | 95.6
KTAAGGAPSPSGASS | 178 | 246 | 298 | 7400 | 2590 | 306 | 271 | 119 | 144 | 111 | 95.7 | 228
TPPSGTENKAATGGA | 49700 | 43400 | 48800 | 405 | 5030 | 19400 | 2970 | 608 | 449 | 733 | 318 | 591
KENKPAAGETPSQPG | 1670 | 983 | 39500 | 359 | 527 | 4840 | 182 | 773 | 210 | 370 | 172 | 130
ENKAATGEAPSPPGA | 24300 | 41800 | 38300 | 262 | 217 | 28100 | 191 | 145 | 126 | 129 | 105 | 125
GKDNKPAAGEAPSPP | 2190 | 595 | 29600 | 1890 | 2870 | 16200 | 278 | 794 | 202 | 206 | 273 | 76.4
SGKDNKTATGGTPSP | 814 | 589 | 902 | 3180 | 984 | 1850 | 261 | 146 | 170 | 507 | 119 | 155
TENKTAAGEAPSPSG | 20100 | 1140 | 2040 | 113 | 251 | 8000 | 201 | 122 | 229 | 163 | 141 | 149
PPSGKDKKPATGETP | 31500 | 2710 | 14200 | 937 | 28800 | 16900 | 376 | 598 | 110 | 323 | 847 | 161
GTENKPATGGAPSPP | 44600 | 19300 | 7800 | 618 | 2090 | 3850 | 494 | 2050 | 737 | 273 | 244 | 200
TPPSGTEKKPATGEA | 45500 | 33400 | 38700 | 574 | 33000 | 18700 | 1070 | 801 | 1080 | 280 | 525 | 504
GKEKKPAAGEAPSPP | 2570 | 370 | 4480 | 1790 | 3250 | 12600 | 123 | 93.9 | 94.3 | 92 | 80.9 | 282
STPPSGTDKKPATGE | 41400 | 44700 | 45100 | 10600 | 50200 | 19900 | 1110 | 641 | 470 | 412 | 4500 | 309
PSGKEKKPATGEAPS | 42700 | 12100 | 38700 | 4290 | 4190 | 33100 | 1090 | 665 | 117 | 268 | 99.1 | 229
